This is one part of the list.

Our source for the cytotoxicity call values is the antibiotic and cytotoxicity screens of Wong et al. (2023).

The first test deals with HSkMC (human skeletal muscle cells). As to the kind of experiment: cytotoxicity call (relative viability < 0.9). The settings on record: 10 µM.
`C(=N\C1CCCCCCCCCCC1)/c1ccco1`: the cytotoxicity call was “inactive”.
Take `C[C@@H]1CN([C@H](C)CO)C(=O)c2cccc(NS(=O)(=O)c3ccccc3)c2O[C@@H]1CN(C)Cc1ccncc1`: the cytotoxicity call is “inactive”.
For the compound `CC(C)(C)c1cc(CN)n[nH]1`, the cytotoxicity call was “inactive”.
Turning to `Cc1noc(C)c1S(=O)(=O)Nc1ccc2c(c1)CC(=O)N([C@@H](C)CO)C[C@@H](C)[C@H](CN(C)C(=O)Nc1ccc3c(c1)OCO3)O2`, the cytotoxicity call was “inactive”.

In a further test the test system is HepG2. As to the kind of experiment: cytotoxicity call (relative viability < 0.9). The settings on record: 10 µM.
Consider `CO[C@H]1CN(C)C(=O)c2cc(NC(=O)Nc3ccccc3F)ccc2OC[C@@H](C)N(Cc2ccccc2C(=O)O)C[C@H]1C`, for which the cytotoxicity call was “inactive”.
For `NNC(=O)c1ccncc1.Nc1ccc(C(=O)O)c(O)c1`, the cytotoxicity call is “active”.
On to `C[C@@H]1CCCCO[C@H](CN(C)C(=O)C2CCCCC2)[C@H](C)CN([C@@H](C)CO)C(=O)c2cc(NC(=O)c3ccncc3)ccc2O1`, for which the cytotoxicity call was “inactive”.
With `C[C@@H]1CN([C@@H](C)CO)C(=O)c2cc(NC(=O)Cc3ccccc3)ccc2O[C@@H](C)CCCCO[C@@H]1CN(C)S(=O)(=O)c1ccc(Cl)cc1`, the cytotoxicity call was “inactive”.
On the same count and under the same terms, the value for `C[C@H]1CN([C@@H](C)CO)C(=O)Cc2cc(NC(=O)Nc3cccc4ccccc34)ccc2O[C@@H]1CN(C)CC1CCCCC1` was “active”; that for `C[C@H]1CN([C@@H](C)CO)C(=O)c2cc(NS(C)(=O)=O)ccc2O[C@@H]1CN(C)Cc1ccc(C(=O)Nc2ccccc2N)cc1` was “inactive”; that for `O=C(CCCCCNC(=O)OCCCCO[C@@H]1C[C@H](c2ccc(Br)cc2)C=C(C(=O)N2CCN(Cc3ccccc3)CC2)O1)NO` was “inactive”.
Take `C[C@@H]1CN([C@@H](C)CO)C(=O)c2cc(NC(=O)Nc3ccc(C(F)(F)F)cc3)ccc2O[C@@H](C)CCCCO[C@H]1CN(C)S(=O)(=O)c1ccccc1`: the cytotoxicity call was “inactive”.
Turning to `O=Cc1ccc(CO)o1`, the cytotoxicity call was “inactive”.
Turning to `Cc1ccc(S(=O)(=O)N(C)C[C@@H]2Oc3ccc(NC(=O)Nc4ccc(C(F)(F)F)cc4)cc3CC(=O)N([C@@H](C)CO)C[C@H]2C)cc1`, the cytotoxicity call was “active”.
On the same count and under the same terms, the value for `C[C@@H]1CN([C@@H](C)CO)C(=O)c2cc(NC(=O)NC3CCCCC3)ccc2O[C@@H](C)CCCCO[C@H]1CN(C)Cc1ccc(Cl)c(Cl)c1` was “active”; that for `C[C@@H]1CN([C@H](C)CO)C(=O)c2cc(NC(=O)Nc3ccc4c(c3)OCO4)ccc2O[C@@H](C)CCCCO[C@H]1CN(C)S(=O)(=O)c1cccs1` was “inactive”; that for `C[C@H](CO)N1C[C@H](C)[C@H](CN(C)S(=O)(=O)c2ccccc2)Oc2c(NC(=O)C3CC3)cccc2C1=O` was “inactive”.
Consider `O=C(CCCCCC(=O)N/N=C/[C@H](O)[C@@H](O)[C@H](O)[C@H](O)CO)NO`, for which the cytotoxicity call is “inactive”.
Take `COc1cc2c(cc1OC)CN(C(=O)[C@H]1[C@@H]3C(=O)O[C@@H](c4ccccc4)[C@@H](c4ccccc4)N3[C@@H](c3ccc(OCCO)cc3)[C@]13C(=O)Nc1ccc(C#CC4(O)CCCCCC4)cc13)CC2`: the cytotoxicity call is “inactive”.
On to `COc1ccc2c3c([nH]c2c1)[C@@H](CO)N(C[C@]13CCN(CC1)CC1CCCC1)C(=O)CN1CCOCC1`, for which the cytotoxicity call is “inactive”.
`CCCCCCCCCC(=O)N[C@H]1[C@H](Oc2c3cc4cc2Oc2ccc(cc2Cl)[C@@H](O[C@@H]2O[C@H](CO)[C@@H](O)[C@H](O)[C@H]2NC(C)=O)[C@@H]2NC(=O)[C@H](NC(=O)[C@@H]4NC(=O)[C@H]4NC(=O)[C@@H](Cc5ccc(c(Cl)c5)O3)NC(=O)[C@@H](N)c3ccc(O)c(c3)Oc3cc(O)cc4c3)c3ccc(O)c(c3)-c3c(O[C@H]4O[C@H](CO)[C@@H](O)[C@H](O)[C@@H]4O)cc(O)cc3[C@H](C(=O)O)NC2=O)O[C@H](CO)[C@@H](O)[C@@H]1O`: the cytotoxicity call is “inactive”.
With `C[C@@H]1CN([C@@H](C)CO)C(=O)c2cccc(NC(=O)CCCCCC(=O)Nc3ccccc3N)c2O[C@H]1CN(C)C(=O)Nc1ccc(F)cc1`, the cytotoxicity call was “inactive”.
Same read-out and setting: the value for `C[C@H]1CCCCO[C@@H](CN(C)C(=O)NC2CCCCC2)[C@@H](C)CN([C@@H](C)CO)C(=O)c2cc(NS(=O)(=O)c3cccs3)ccc2O1` was “inactive”; that for `COc1ccc(NC(=O)Nc2ccc3c(c2)C(=O)N([C@@H](C)CO)C[C@@H](C)[C@@H](CN(C)C(=O)C2CCCCC2)OCCCC[C@@H](C)O3)cc1` was “inactive”; that for `CS(=O)(=O)Nc1cccc(C2=NN(c3nc(-c4ccccc4)c4cc(Cl)ccc4n3)[C@H](c3ccco3)C2)c1` was “inactive”.
Still for that read-out and setting: the value for `Cc1ccc(S(=O)(=O)Nc2cccc3c2O[C@H](CN(C)C(=O)Nc2cccc4ccccc24)[C@@H](C)CN([C@H](C)CO)C3=O)cc1` was “inactive”.
In the case of `C[C@@H]1CCCCO[C@@H](CN(C)S(=O)(=O)c2ccccc2)[C@@H](C)CN([C@H](C)CO)C(=O)c2cc(NC(=O)Nc3cccc4ccccc34)ccc2O1`, the cytotoxicity call was “inactive”.
The same measure, in the same setting: the value for `COc1ccc(NC(=O)Nc2ccc3c(c2)CC(=O)N([C@H](C)CO)C[C@H](C)[C@@H](CN(C)S(=O)(=O)c2c(C)noc2C)O3)cc1` was “inactive”; that for `O=C(C[C@@H]1CC[C@@H]2[C@H](COC[C@H](O)CN2C(=O)c2ccccn2)O1)NC1CCC1` was “inactive”.
`Oc1cc(O)c2c(c1)OC(c1cc(O)c(O)c(O)c1)C(O)C2c1c(O)cc(O)c2c1OC(c1cc(O)c(O)c(O)c1)C(O)C2c1c(O)cc(O)c2c1OC(c1cc(O)c(O)c(O)c1)C(O)C2` (centres undefined): the cytotoxicity call was “inactive”.
In the case of `C[C@H]1CN([C@@H](C)CO)C(=O)c2cc(NS(=O)(=O)c3ccc(Cl)cc3)ccc2O[C@H]1CN(C)Cc1ccc(-c2ccccc2)cc1`, the cytotoxicity call is “inactive”.
Take `C[C@@H]1CN([C@@H](C)CO)C(=O)c2cc(C#Cc3ccccc3F)cnc2O[C@@H]1CN(C)S(=O)(=O)c1ccccc1`: the cytotoxicity call is “inactive”.
Still for that read-out and setting: the value for `O=C(NO)c1ccc(C(=O)N/N=C/c2ccc(B(O)O)cc2)cc1` was “inactive”; that for `C[C@@H]1CCCCO[C@H](CN(C)S(=O)(=O)c2cccs2)[C@H](C)CN([C@@H](C)CO)C(=O)c2cc(NC(=O)CCC(F)(F)F)ccc2O1` was “inactive”.
As to `CN1CCN(C(=O)C[C@H]2CC[C@H]3[C@@H](COC[C@@H](O)CN3C(=O)C3CCOCC3)O2)CC1`, the cytotoxicity call is “inactive”.
Regarding `O=C(CCO[C@@H]1O[C@H](CO)[C@@H](O)[C@H](O)[C@H]1O)c1ccc(O)cc1`, the cytotoxicity call is “inactive”.
The same measure, in the same setting: the value for `CC(=O)/N=c1\sc(S(N)(=O)=O)nn1C` was “inactive”; that for `C[C@H](CO)N1C[C@H](C)[C@H](CN(C)C(=O)c2ccccc2)Oc2cc(C#C[C@@H](C)O)ccc2S1(=O)=O` was “inactive”; that for `N[C@@H](Cc1c[nH]c2ccc(O)cc12)C(=O)O` was “inactive”.
In the case of `C[C@@H]1CCCCO[C@H](CN(C)C(=O)Nc2cccc3ccccc23)[C@@H](C)CN([C@H](C)CO)C(=O)c2cc(N(C)C)ccc2O1`, the cytotoxicity call was “inactive”.
On the same count and under the same terms, the value for `C(=N\C1CCCCCCCCCCC1)/c1ccco1` was “inactive”; that for `C[C@@H]1CN([C@H](C)CO)C(=O)c2cccc(NS(=O)(=O)c3ccccc3)c2O[C@@H]1CN(C)Cc1ccncc1` was “inactive”.
The same measure, in the same setting: the value for `CC(C)(C)c1cc(CN)n[nH]1` was “inactive”.
Same read-out and setting: the value for `Cc1noc(C)c1S(=O)(=O)Nc1ccc2c(c1)CC(=O)N([C@@H](C)CO)C[C@@H](C)[C@H](CN(C)C(=O)Nc1ccc3c(c1)OCO3)O2` was “inactive”.
